This list was built around the results that the source calls inconclusive (neither active nor inactive); the mix of calls is not that of the screen. No potency is given beside an inconclusive call; the fits are too rough. Active and inactive are the calls of the source. The call rests on the fitted dose curve; in most records, active means well fitted cell-killing curve with a large enough effect; inconclusive means small, poorly fitted or top-dose-only effect; inactive means no such curve, though single readings can be large or run the other way.
assay: qHTS of pediatric cancer cell lines to identify multiple opportunities for drug repurposing: Primary screen for SK-N-MC cells (AID 1347093); settings: SK-N-MC viability, CellTiter-Glo luminescence, 48 h; series mostly up to 46 µM
Summary of the method: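 Metabolically active cells were quantified by ATP-dependent luminescence (CellTiter-Glo, 15 min at room temperature) following 48 h treatment. Cells had been plated at 500-1,000 per well and settled for 5 h beforehand.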
Potency means the concentration at half of the fitted maximal effect; tags describe the fitted curve by direction and shape.

Compound | Potency
C=C[C@@H]1CN2CCC1C[C@@H]2C(O)c1ccnc2ccc(OC)cc12 (stereo partly specified) | inactive
CC(C)C[C@H](CC(=O)O)C(=O)N[C@@H](Cc1c[nH]c2ccccc12)C(=O)N[C@@H](C)c1ccccc1 | active: 1.66 µM
CCOC(=O)O[C@]1(C(=O)OCCl)CC[C@@H]2[C@H]3CCC4=CC(=O)C=C[C@]4(C)[C@@H]3[C@@H](O)C[C@@]21C | inactive
CC(C)C[C@@H](N)[C@H](O)C(=O)N[C@H](C(=O)N[C@H](C(=O)N[C@@H](CC(=O)O)C(=O)O)C(C)C)C(C)C | inconclusive [cytotoxic, single point]
NCCS(=O)(=O)O | inactive
COc1ccc(CC2SC(=O)NC2=O)cc1C(=O)NCc1ccc(C(F)(F)F)cc1 (stereo unspecified) | inconclusive [cytotoxic, single point]
Cc1cc(O)c2c(c1)C(=O)c1cccc(O)c1C2=O | inconclusive [cytotoxic, single point]
N[C@@H](CC(=O)N1CCn2c(nnc2C(F)(F)F)C1)Cc1cc(F)c(F)cc1F | active: 18.7 µM
Cc1cnc(C(=O)NCCc2ccc(S(=O)(=O)NC(=O)NC3CCCCC3)cc2)cn1 | inconclusive [cytotoxic, single point]
CN(C)CCc1c[nH]c2ccc(Cn3cncn3)cc12 | inactive
C[C@]12CC[C@@H]3c4ccc(O)cc4C[C@@H](CCCCCCCCCS(=O)CCCC(F)(F)C(F)(F)F)[C@H]3[C@H]1CC[C@H]2O (stereo partly specified) | inconclusive [cytotoxic, partial curve]

Source: PubChem BioAssay (NCATS)
